Test results from PubChem BioAssay (NCATS).
Some of the results follow. These are further read-outs of the screen, such as a control signal, another cell line or another target. No call is given for them. Most of these compounds were active or inconclusive in the main read-out, so they are no random draw. The note in brackets gives the kind of curve behind each potency; many fits are weak.

Assay: qHTS Assay for Lipid Storage Modulators (AID 1519)
Conditions: Drosophila S3 cells, BODIPY lipid droplet/cell ratio, laser cytometry, cells loaded with oleic acid
Summary of the method: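 Cells seeded at 5,000 per well were treated with compounds over a concentration series and loaded with oleic acid (400 uM, as added). Lipid droplet fluorescence (488 nm excitation, 500-530 nm channel) was read by laser-scanning cytometry and normalized to 20 uM Triacsin C.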

[1] = measured here: cell count channel max response
[2] = measured here: cell number channel AC50
[3] = measured here: lipid (BODIPY) channel AC50
[4] = measured here: lipid channel max response
Tags describe the fitted curve by direction and shape.

In the case of `COc1ccccc1CNc1ncncc1-c1ccc(C(=O)N(C)C)cc1`, the max response [1] is reported as 57.2%, the AC50 [2] is reported as 31.6 µM [rising, partial curve] and the AC50 [3] is reported as 28.2 µM [rising, partial curve, poor fit]. It also gave a max response [4] of 67.5%.
With `CSc1cc2c(cc1C(F)(F)F)N(C(=O)Nc1cccnc1)CC2` the max response [1] was 135%, the AC50 [2] was 1.41 µM [rising, full curve] and the AC50 [3] was 1.58 µM [rising, full curve]. For the same compound, the max response [4] was 175%.
With `COc1ncc2nc(-c3ccc(F)cc3)c(=O)n(Cc3cccs3)c2n1` the max response [1] was 37.7%, the AC50 [2] was 14.1 µM [rising, partial curve, poor fit] and the AC50 [3] was 14.1 µM [rising, partial curve]. For the same compound, the max response [4] was 45.9%.
In the case of `COc1ccc2[nH]cc(CCNc3cc(-c4c(C)noc4C)ncn3)c2c1`, the max response [1] is reported as 24.6%, the AC50 [2] is reported as 0.794 µM [rising, full curve] and the AC50 [3] is reported as 0.631 µM [rising, full curve]. It also gave a max response [4] of 31.7%.
For `O=C1c2ccccc2C(=O)c2c(O)c(O)cc(O)c21`, the max response [1] was 111%, the AC50 [2] was 25.1 µM [rising, partial curve] and the AC50 [3] was 15.8 µM [rising, partial curve]. The max response [4] was 92%.
In the case of `CN1CCN2c3ncccc3Cc3ccccc3C2C1` (configuration not stated), the max response [1] is reported as 37.8%, the AC50 [2] is reported as 39.8 µM [rising, single point] and the AC50 [3] is reported as 39.8 µM [rising, single point]. The max response [4] was 39.6%.
In the case of `COc1cccc2c1C(=O)c1c(O)c3c(c(O)c1C2=O)C[C@](O)(C(C)=O)C[C@H]3O[C@@H]1C[C@H](N)[C@H](O)[C@H](C)O1`, the max response [1] is reported as -65.9%, the AC50 [2] is reported as 11.2 µM [falling, partial curve] and the AC50 [3] is reported as 4.47 µM [falling, partial curve]. It also gave a max response [4] of -86%.
With `c1cncc(-c2nc(NCc3cccs3)c3ccccc3n2)c1` the max response [1] was 21.3%, the AC50 [2] was 0.251 µM [rising, full curve] and the AC50 [3] was 0.398 µM [rising, full curve]. For the same compound, the max response [4] was 30.4%.
For `CN(C)c1ncc2nc(-c3ccccc3)c(=O)n(Cc3cccs3)c2n1`, the max response [1] was 17.6%, the AC50 [2] was 4.47 µM [rising, single point] and the AC50 [3] was 4.47 µM [rising, full curve, poor fit]. The max response [4] was 24%.
For `O=C(c1cccc(F)c1)N1CCC2(CC1)CN(c1ccc(-c3ccccc3)cc1)C2`, the max response [1] was -38%, the AC50 [2] was 39.8 µM [falling, single point] and the AC50 [3] was 39.8 µM [falling, single point]. The max response [4] was -78%.
For `C1CCc2nnnn2CC1`, the max response [1] was 21.3%, the AC50 [2] was 11.2 µM [falling, partial curve, poor fit] and the AC50 [3] was 11.2 µM [falling, partial curve, poor fit]. The max response [4] was 21.5%.
With `FC(F)(F)c1ccccc1-c1nc(NCc2cccnc2)c2ccccc2n1` the max response [1] was 39%, the AC50 [2] was 3.98 µM [rising, full curve] and the AC50 [3] was 3.16 µM [rising, full curve]. It also gave a max response [4] of 49.6%.
For `Cc1nc2cnc(Oc3ccccc3)nc2n(-c2ccccc2)c1=O`, the max response [1] was 39.7%, the AC50 [2] was 8.91 µM [rising, full curve, poor fit] and the AC50 [3] was 7.94 µM [rising, partial curve]. The max response [4] was 47.2%.
With `CC1(C)CC(=O)C([C@H]2C3=C(CC(C)(C)CC3=O)Oc3ccccc32)C(=O)C1` the max response [1] was 52.5%, the AC50 [2] was 17.8 µM [rising, partial curve, poor fit] and the AC50 [3] was 17.8 µM [rising, partial curve, poor fit]. The max response [4] was 64.4%.
In the case of `O=c1c(-c2ccccc2)nc2cnc(N3CCOCC3)nc2n1Cc1ccc(F)cc1`, the max response [1] is reported as 28.3%, the AC50 [2] is reported as 2.82 µM [rising, full curve, poor fit] and the AC50 [3] is reported as 3.98 µM [rising, partial curve]. The max response [4] was 22.8%.
In the case of `CC(=O)NCCNc1nc(-c2c(C)noc2C)nc2ccccc12`, the max response [1] is reported as 37.2%, the AC50 [2] is reported as 6.31 µM [rising, full curve] and the AC50 [3] is reported as 3.98 µM [rising, full curve]. For the same compound, the max response [4] was 43.6%.
In the case of `CCNc1ncc2nc(CCc3ccccc3)c(=O)n(-c3ccc(OC)cc3)c2n1`, the max response [1] is reported as 28%, the AC50 [2] is reported as 0.0158 µM [rising, full curve, poor fit] and the AC50 [3] is reported as 0.562 µM [rising, full curve, poor fit]. For the same compound, the max response [4] was 41.2%.
With `Clc1ccccc1-c1ccc2ncnc(NCc3cccnc3)c2c1` the max response [1] was 10.9%, the AC50 [2] was 2.82 µM [rising, partial curve, poor fit] and the AC50 [3] was 2.82 µM [rising, partial curve, poor fit]. It also gave a max response [4] of 10.4%.
